# “And” between values parts separate entries of the source, which are not always exact repeats. Equal entries are not always repeated. In all, about 110,000 compounds went through this assay and about 610 (0.55%) were called active. Inconclusive means that the source gave no clear call. Such entries were picked first, then a sample of the others. Calls come from the whole dose curve; as a rule, active = well fitted inhibition curve with a large enough effect; inconclusive = small, poorly fitted or top-dose-only effect; inactive = no such curve, though single readings can be large or run the other way. A potency beside an inconclusive call is a rough fit, not a confirmed value.
# Target: Polyunsaturated fatty acid lipoxygenase ALOX15B (Homo sapiens) (UniProt O15296)
# Assay: qHTS Assay for Inhibitors of 15-hLO-2 (15-human lipoxygenase 2); note: nearly all actives have a fitted effect of over 60% in size
# Settings: purified 15hLO-2, xylenol orange hydroperoxide absorbance; activity change, negative = inhibition: at 57.1 µM (top of the series) unless noted
# Procedure, shortened: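 Screening format was qHTS against 50 nM purified 15hLO-2 in Hepes pH 7.5 with detergent. Activity follows hydroperoxide formation from 45 uM arachidonic acid, measured as 573:405 nm absorbance ratio of the ferric-xylenol orange complex.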
# % is set by controls: 0 for no effect and ±100 for the full control effect; potency is the fitted concentration of half-maximal effect; tags give direction and shape of the fitted curve.
# UniProt O15296, sequence (O15296 whole entry, looked up): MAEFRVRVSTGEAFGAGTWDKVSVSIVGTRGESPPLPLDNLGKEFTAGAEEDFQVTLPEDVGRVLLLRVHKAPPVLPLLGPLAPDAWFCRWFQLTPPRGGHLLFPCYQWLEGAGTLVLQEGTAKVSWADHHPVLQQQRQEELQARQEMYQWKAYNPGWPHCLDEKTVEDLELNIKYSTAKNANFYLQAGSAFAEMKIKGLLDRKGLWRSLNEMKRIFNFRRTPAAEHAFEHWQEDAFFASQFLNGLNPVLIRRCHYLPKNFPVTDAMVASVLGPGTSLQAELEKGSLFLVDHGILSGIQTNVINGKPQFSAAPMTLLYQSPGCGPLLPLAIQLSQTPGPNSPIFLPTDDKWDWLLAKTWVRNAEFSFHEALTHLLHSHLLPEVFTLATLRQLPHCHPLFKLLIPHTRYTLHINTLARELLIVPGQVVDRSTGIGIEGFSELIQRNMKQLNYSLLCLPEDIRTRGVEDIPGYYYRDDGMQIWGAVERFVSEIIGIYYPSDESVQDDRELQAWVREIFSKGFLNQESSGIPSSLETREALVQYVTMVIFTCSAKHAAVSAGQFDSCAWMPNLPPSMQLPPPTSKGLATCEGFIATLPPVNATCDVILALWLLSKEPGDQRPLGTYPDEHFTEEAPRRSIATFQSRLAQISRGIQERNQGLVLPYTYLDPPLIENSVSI
SMILES,Potency,"activity change, negative = inhibition"
O=C1S/C(=C/c2ccc(N3CCOCC3)o2)C(=O)N1Cc1ccc(F)cc1,active: 1.26 µM,
Nc1c(N2CCCC2)cc(Cl)c2nonc12,"inconclusive: 15.8 µM [inhibitor, partial curve]",
COc1ccc(-n2nnc3c(SCC(=O)Nc4ccc5c(c4)OCCO5)ncnc32)cc1,"inconclusive: 25.1 µM [inhibitor, single point]",
CCn1c2ccccc2c2cc(NC(=O)c3ccc(Br)o3)ccc21,active: 3.16 µM,
CCCOc1ccc(N2C(=O)CC(N3CCN(c4ccccc4OC)CC3)C2=O)cc1 (stereo not drawn),"inconclusive: 15.8 µM [inhibitor, partial curve]",
COc1ccc(-c2nc(C#N)c(N3CCC(C(N)=O)CC3)o2)cc1OC,"inconclusive: 0.199 µM [inhibitor, full curve, poor fit]",
CCCn1c(C)nc2c(c1=O)c1nc3ccccc3nc1n2CCC1=CCCCC1,"inconclusive: 12.6 µM [inhibitor, partial curve]",
COC(=O)c1ccc(C2Nc3ccc(/C(C)=N/NC(=O)C(OC)c4ccccc4)cc3C3C=CCC32)cc1 (stereo not drawn),"inconclusive: 20 µM [inhibitor, partial curve]",
CC(CN1c2ccccc2Sc2ccccc21)N(C)C (stereo not drawn),"inconclusive: 31.6 µM [inhibitor, single point]",
S=C=Nc1cccc(NC(=S)NCCCCNC(=S)Nc2cccc(N=C=S)c2)c1,"inconclusive: 25.1 µM [inhibitor, single point]",
Oc1ccccc1C1=Nc2ncnn2C(c2ccc(F)cc2)C1 (stereo not drawn),,inactive: -29.9%
c1ccc(-c2csc3ncn4cnnc4c23)cc1,"inconclusive: 0.158 µM [inhibitor, full curve]",
OCCN(C=NC1=NN(c2cccc(C(F)(F)F)c2)CC1)CCO,active: 25.1 µM,
CCCCCC/C(C)=C1/SC(=S)NC1=O,"inconclusive: 12.6 µM [inhibitor, partial curve]",
CC1/C=C/C=C/C=C/C=C/C=C/C=C/C=C/C(OC2OC(C)C(O)C(N)C2O)CC2O[C@@](O)(CC(O)CC(O)C(O)CCC(O)CC(O)CC(=O)OC(C)[C@H](C)C1O)CC(O)C2C(=O)O (stereo partly drawn),,inactive: -23.4%
CCOC(=O)c1c(C)[nH]c(C(=O)OCC(=O)Nc2ccc(OC)c(Cl)c2)c1C,"inconclusive: 12.6 µM [inhibitor, partial curve]",
CC(C)C1C(C#N)=C(N)Oc2n[nH]c(C(C)(C)C)c21 (stereo not drawn),,inactive: 4.19%
CC(=O)N1CCC2(CC1)CCN(c1ccccn1)CC2,,inactive: 1.44%
CCOC(=O)CCNCC1COc2ccccc2O1 (stereo not drawn),,inactive: -4.78% [at 11.4 µM]
COc1c(O)c(O)cc2c1oc1c3cc(C)ccc3oc(=O)c21,"inconclusive: 6.31 µM [inhibitor, partial curve]",
NC(=O)COc1ccc(=O)n(-c2ccccc2)n1,,inactive: 13.7%
O=C1NN(c2ccc(Cl)c(Cl)c2)C(=O)/C1=C/c1cccc(OC(=O)c2cccs2)c1,active: 10 µM,

SMILES,Potency,"activity change, negative = inhibition"
O=c1ccsn1Cc1ccccc1,"inconclusive: 3.98 µM [inhibitor, full curve]",
O=c1oc2ccccc2cc1-c1csc(NN=C2CCCCC2)n1,"inconclusive: 12.6 µM [inhibitor, partial curve]",
Cn1nnnc1SCC(=O)N1c2ccccc2Sc2ccc(Cl)cc21,"inconclusive: 6.31 µM [inhibitor, single point]",
CC(=O)Nc1nc(C)c(-c2csc(Nc3ccc(O)cc3)n2)s1,,inconclusive: -33.1% [inhibitor] [at 11.4 µM]
COc1cnc(SCc2ccc(Cl)c(Cl)c2)nc1Cl,,inactive: 13.5%
CC(C)(c1cc(Br)c(O)c(Br)c1)c1cc(Br)c(O)c(Br)c1,"inconclusive: 25.1 µM [inhibitor, partial curve] and inconclusive: 15.8 µM [inhibitor, partial curve]",
CC(C)c1nc2oc3c(NCC4CCCO4)ncnc3c2c2c1CCC2 (stereo not drawn),,inactive: 6.19%
COc1cccc(Nc2ncc3nc(-c4cccs4)c(=O)n(C[C@H]4CCCO4)c3n2)c1,,inactive: -1.32%
O=C1C=C(NCCO)C(=O)c2cnccc21,"inconclusive: 15.8 µM [inhibitor, partial curve]",
O=C(NC(=S)N1CCCCC1)C12CC3CC(CC(C3)C1)C2,"inconclusive: 15.8 µM [inhibitor, partial curve]",
O=C1C(=C2CCCCC2)SC(=S)N1Cc1ccco1,"inconclusive: 10 µM [inhibitor, partial curve]",
CN(C)c1ccc(C(=O)Nc2ccc(S(=O)(=O)NC3=NCCCCC3)cc2)cc1,"inconclusive: 31.6 µM [inhibitor, single point]",
COc1ccc2c(c1)C(C1C(=O)CCCC1=O)c1ccccc1O2 (stereo not drawn),"inconclusive: 0.158 µM [inhibitor, full curve, poor fit]",
O=C1CC(N(O)C2CC(=O)N(Cc3ccccc3)C2=O)C(=O)N1Cc1ccccc1 (stereo not drawn),"inconclusive: 12.6 µM [inhibitor, partial curve]",
O=C(CCCC(=O)OCC(=O)c1ccc(Cl)cc1Cl)Nc1cc(C(F)(F)F)ccc1Cl,"inconclusive: 0.794 µM [inhibitor, full curve, poor fit]",
CCCCN(CCCC)S(=O)(=O)c1ccc(NC(=O)Cc2cccs2)cc1,"inconclusive: 25.1 µM [inhibitor, partial curve]",
Cc1cc(C2C(C#N)=C(N)SC(N)=C2C#N)c(C)s1,"inconclusive: 39.8 µM [inhibitor, single point]",
Nc1c(S(=O)(=O)O)cc(Nc2cccc(S(N)(=O)=O)c2)c2c1C(=O)c1ccccc1C2=O,"inconclusive: 3.16 µM [inhibitor, single point]",
COc1ccc(OC)c(Nc2nc(-c3cccc([N+](=O)[O-])c3)nc3ccccc23)c1,"inconclusive: 31.6 µM [inhibitor, single point]",
O=C(Nc1nc2ccccc2n1CCOc1ccccc1)c1ccco1,,inactive: 38.2%
COC(=O)C1=C(C(=O)OC)C(c2cc(Cl)ccc2O)c2sc(=O)[nH]c2S1 (stereo not drawn),"inconclusive: 25.1 µM [inhibitor, single point]",

# Reference: PubChem BioAssay AID881 (National Center for Advancing Translational Sciences (NCATS), 2007)
